From paper PMC10526654
No constants are given. Whether binding was seen depends on the method and setting. In cells and extracts the contact can be indirect. Some entries that bind do so weakly or less than the wild type.

Amino acid sequences for entries named in this document (tags omitted). A change or cut given only in a name is not applied to a line headed by its entry.
UniProt P19474: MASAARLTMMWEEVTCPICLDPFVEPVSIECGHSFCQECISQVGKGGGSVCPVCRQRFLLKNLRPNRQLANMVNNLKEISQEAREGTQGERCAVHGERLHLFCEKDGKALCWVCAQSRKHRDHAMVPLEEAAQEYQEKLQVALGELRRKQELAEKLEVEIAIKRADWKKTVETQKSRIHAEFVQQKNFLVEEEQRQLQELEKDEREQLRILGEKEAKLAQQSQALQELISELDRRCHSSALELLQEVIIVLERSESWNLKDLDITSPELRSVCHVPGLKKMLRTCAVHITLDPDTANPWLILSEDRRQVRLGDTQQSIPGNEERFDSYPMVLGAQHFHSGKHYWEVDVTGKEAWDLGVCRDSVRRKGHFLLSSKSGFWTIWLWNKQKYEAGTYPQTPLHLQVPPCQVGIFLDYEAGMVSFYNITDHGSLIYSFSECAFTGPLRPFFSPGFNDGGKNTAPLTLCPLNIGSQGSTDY

Experiments:
HA-TRIM21 (in GBM cells) [1] = target: HA-TRIM21 (in GBM cells) (UniProt P19474); test: co-IP; U87 and U251 cells; ectopic TRIM21 with TIF1γ (Figure 4C); Flag-TIF1γ precipitated with anti-flag (Figure 4D); wash 50 mM Tris HCl, 150 mM NaCl, pH 7.4
HA-TRIM21^R443W = HA-TRIM21^R443W (UniProt P19474); test: co-IP; U87-MG cells transfected with HA-TRIM21 or HA-TRIM21^R443W; lysates immunoprecipitated with anti-HA antibodies
HA-TRIM21 (in GBM cells) [2] = target: HA-TRIM21 (in GBM cells) (UniProt P19474); test: as above

B1: TIF1γ (endogenous in GBM cells) (protein, UniProt Q9UPN9 1-1127)
chain: MAENKGGGEAESGGGGSGSAPVTAGAAGPAAQEAEPPLTAVLVEEEEEEGGRAGAEGGAAGPDDGGVAAASSGSAQAASSPAASVGTGVAGGAVSTPAPAPASAPAPGPSAGPPPGPPASLLDTCAVCQQSLQSRREAEPKLLPCLHSFCLRCLPEPERQLSVPIPGGSNGDIQQVGVIRCPVCRQECRQIDLVDNYFVKDTSEAPSSSDEKSEQVCTSCEDNASAVGFCVECGEWLCKTCIEAHQRVKFTKDHLIRKKEDVSESVGASGQRPVFCPVHKQEQLKLFCETCDRLTCRDCQLLEHKEHRYQFLEEAFQNQKGAIENLLAKLLEKKNYVHFAATQVQNRIKEVNETNKRVEQEIKVAIFTLINEINKKGKSLLQQLENVTKERQMKLLQQQNDITGLSRQVKHVMNFTNWAIASGSSTALLYSKRLITFQLRHILKARCDPVPAANGAIRFHCDPTFWAKNVVNLGNLVIESKPAPGYTPNVVVGQVPPGTNHISKTPGQINLAQLRLQHMQQQVYAQKHQQLQQMRMQQPPAPVPTTTTTTQQHPRQAAPQMLQQQPPRLISVQTMQRGNMNCGAFQAHQMRLAQNAARIPGIPRHSGPQYSMMQPHLQRQHSNPGHAGPFPVVSVHNTTINPTSPTTATMANANRGPTSPSVTAIELIPSVTNPENLPSLPDIPPIQLEDAGSSSLDNLLSRYISGSHLPPQPTSTMNPSPGPSALSPGSSGLSNSHTPVRPPSTSSTGSRGSCGSSGRTAEKTSLSFKSDQVKVKQEPGTEDEICSFSGGVKQEKTEDGRRSACMLSSPESSLTPPLSTNLHLESELDALASLENHVKIEPADMNESCKQSGLSSLVNGKSPIRSLMHRSARIGGDGNNKDDDPNEDWCAVCQNGGDLLCCEKCPKVFHLTCHVPTLLSFPSGDWICTFCRDIGKPEVEYDCDNLQHSKKGKTAQGLSPVDQRKCERLLLYLYCHELSIEFQEPVPASIPNYYKIIKKPMDLSTVKKKLQKKHSQHYQIPDDFVADVRLIFKNCERFNEMMKVVQVYADTQEINLKADSEVAQAGKAVALYFEDKLTEIYSDRTFAPLPEFEQEEDDGEVTEDSDEDFIQPRRKRLKSDERPVHIK
binding (HA-TRIM21 (in GBM cells) [1]): binds
binding (HA-TRIM21^R443W): no binding
binding (HA-TRIM21 (in GBM cells) [2]): binds
